Among all 50,000 compounds or so, about 800 (1.6%) showed an effect of 50% or more. This is one part of the list.

The experiment deals with Bcl-2-like protein 10 (Homo sapiens) (UniProt Q9HD36). As to the kind of experiment: TR3 peptide-Bcl-B binding displacers, biochemical primary FP assay, phenotype converters (AID 1240).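 Also: 0% = Bcl-B with tracer peptide and DMSO and 100% = tracer peptide lacking Bcl-B.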 To be noted: GST-Bcl-B / FITC-TR3 peptide fluorescence polarization; stronger effect = higher value; compound at 3.75 mg/L.
UniProt Q9HD36, sequence (Q9HD36 whole entry, looked up): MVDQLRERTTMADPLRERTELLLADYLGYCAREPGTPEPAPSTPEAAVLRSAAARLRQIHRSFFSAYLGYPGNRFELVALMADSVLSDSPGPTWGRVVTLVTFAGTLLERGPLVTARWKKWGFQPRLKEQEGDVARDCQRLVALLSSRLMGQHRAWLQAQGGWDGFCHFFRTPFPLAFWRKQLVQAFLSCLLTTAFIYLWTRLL
On to `COc1ccc(-c2cc(C(F)(F)F)n3ncc(C(=O)N4CCN(Cc5ccccc5)CC4)c3n2)cc1`, for which the displacement was -3.9%.

Regarding `COC(=O)c1ccc(NC(=S)NC(=O)/C=C/c2ccc(C)cc2)cc1`, the displacement worked out at 3.1%.

For the compound `COc1ccc(/C=C(\NC(=O)c2ccc(Cl)cc2)C(=O)NCc2ccco2)cc1OC`, the displacement came out at 8.8%.

Regarding `CSc1ccc(/C=N\NC(=O)COc2ccc(C)cc2)cc1`, the displacement came to 11.8%.

In the case of `C=CCNC(=O)C(=O)NCCN1CCOCC1`, the displacement is 7.7%.

Turning to `COc1cc(C(=O)N/C(=C/c2ccc(Br)cc2)C(=O)NCCC(=O)O)cc(OC)c1OC`, the displacement is -3.8%.

`O=C1c2ccccc2C(=O)N1CC1=NCCc2ccccc21`: the displacement was determined as 0.5%.

Regarding `NNC(=O)c1ccc(OCc2ccc(Cl)cc2)cc1`, the displacement was 12.7%.

`CCOC(=O)c1ccc(-n2c(C)cc(/C=N/n3cnnc3)c2C)cc1`: the displacement was 12.1%.

Regarding `O=C(c1ccccc1I)N1CCN(c2cccc(Cl)c2)CC1`, the displacement stood at 3.8%.

With `CCOC(=O)c1cccc(NC(=O)COc2ccccc2)c1`, the displacement came out at 4.5%.

For the compound `COC(=O)C1=C(O)/C(=C\c2ccccc2)N=C1C`, the displacement stood at 13.5%.

For `CC(=O)Nc1ccc(Cl)c(-c2nc3cc(C)c(C)cc3o2)c1`, the displacement came out at 15.4%.

Consider `COc1ccccc1-n1c(SCC(=O)c2ccccc2)nc2ccccc2c1=O`, for which the displacement was -4.7%.

In the case of `C=CCOC(=O)C1=C(C)NC(C)=C(C(=O)OCC=C)C1c1ccc(OC)c(OC)c1`, the displacement stood at 8.5%.

For `O=[N+]([O-])c1ccc(S(=O)(=O)Nc2ccc3c(c2)OCCO3)cc1`, the displacement was -8.9%.

With `CCN(Cc1ccccc1)C(=O)c1ccccc1[N+](=O)[O-]`, the displacement was -11.3%.

Take `O=C(CSc1n[nH]c(-c2ccccc2)n1)c1cccc([N+](=O)[O-])c1`: the displacement is -12.7%.

Regarding `N#Cc1c2n(c3c(=O)n(Cc4ccc(Cl)cc4)cnc13)CCCC2`, the displacement was -2%.

With `CCn1c2ccccc2c2cc(/C=N/N3CCN(c4ccccc4OC)CC3)ccc21`, the displacement was -8.2%.

Consider `CCOc1ccccc1/C=N\n1c(C)nnc1C`, for which the displacement turned out to be 0.4%.

For `O=C(NCc1ccccc1)C(=O)Nc1c(O)c2ccccc2[nH]c1=O`, the displacement was -5.2%.

Consider `O=C1C(Nc2ccccc2)=CC(Nc2ccccc2)/C1=C\c1ccccc1` (stereo unspecified), for which the displacement amounted to 7.2%.

For the compound `CCOC(=O)c1c(NC(=O)CSc2nnc3c(n2)[nH]c2ccccc23)sc2c1CCCC2`, the displacement is -10.2%.

With `CCCC(CCC)C(=O)Nc1ccc2c(c1)N(C(=O)CN1CCN(C)CC1)c1ccccc1CC2`, the displacement is -6.7%.

Regarding `CCOc1ccc(Nc2cc(C)c3ccccc3n2)cc1`, the displacement amounted to 12.7%.

As to `C=C(C)CSc1nc(SCC(=C)C)c2c3c(sc2n1)COC(C)(C)C3`, the displacement was -1.2%.

As for `COc1cccc(NC(=O)/C=C/c2ccc(OC)c(Br)c2)c1`, the displacement was determined as 13.6%.

For the compound `COCCNCCOc1c(C)cc(Cl)cc1C`, the displacement is 7.2%.

As for `CCOC(=O)CNC(=O)c1cccc(Cl)c1`, the displacement was 13.7%.

With `C/C(=N\N1CCN(Cc2cccc3ccccc23)CC1)c1ccncc1`, the displacement is -7.1%.

Consider `Cc1cccc(N2C(=O)/C(=C/c3cc(C)n(C)c3C)C(=O)NC2=S)c1`, for which the displacement is 1.9%.

As to `N#C/C(C(=O)c1ccccc1)=C1/CCCN1`, the displacement is 0.5%.

For `CCc1c(C#N)c(N)nc2sc(C(=O)Nc3ccc(Br)cc3)c(N)c12`, the displacement came out at 1.3%.

Turning to `COc1ccc(CN2CCN(C(=O)c3cccs3)CC2)c(OC)c1OC`, the displacement is -5.4%.

For the compound `CCc1cccc2c1=NC(=O)C=2c1sc(=S)[nH]c1O`, the displacement was found to be 1.7%.

Consider `Cc1ccccc1C(=O)O/N=C(\N)c1ccccc1`, for which the displacement was -4.8%.

Regarding `COc1ccc(S(=O)(=O)NC(C)C2C3CC4CC(C3)CC2C4)cc1` (stereo unspecified), the displacement is 8.2%.

On to `Cc1ccc(NC(=O)COc2ccc(Br)cc2)c([N+](=O)[O-])c1`, for which the displacement was -4.7%.

Turning to `O=C(O)CCCCCC1CCNC(=O)N1` (stereo unspecified), the displacement is -3.9%.

For `O=[N+]([O-])c1cccc(C=NCCCN2CCOCC2)c1`, the displacement was -7.3%.

For the compound `CC1CCN(CCCCOc2c(Cl)cccc2Cl)CC1`, the displacement was 14.8%.

In the case of `C=CCOc1nc(-c2ccc(Br)cc2)nc2ccccc12`, the displacement was determined as 16.4%.

In the case of `O=C1C(c2ccccc2)=NOC12CCCC2`, the displacement came out at 0.3%.

Take `Cc1ccc(C)c(NC(=O)CN(c2ccc(Br)cc2)S(C)(=O)=O)c1`: the displacement was 3.9%.

For the compound `Cc1cc(OCC(=O)Nc2ccccn2)cc(C)c1Cl`, the displacement was -7.2%.

Consider `COc1ccc([N+](=O)[O-])cc1/C=C1/C(=O)NC(=O)N(c2ccc(C(C)C)cc2)C1=O`, for which the displacement was -10.4%.

With `CC1=NN(c2cccc(C(=O)O)c2)C(=O)/C1=C\c1ccc(F)cc1`, the displacement was -2.9%.

Turning to `O=C(c1ccc(S(=O)(=O)N2CCCCC2)cc1)N1CCN(c2ccccc2)CC1`, the displacement was -2.5%.

For `CCOC(=O)C1=C(C)N=c2s/c(=C/c3ccccn3)c(=O)n2C1c1ccccc1Cl` (stereo unspecified), the displacement was -0.4%.

Turning to `COc1ccccc1CC(=O)Nc1ccc(F)cc1`, the displacement was -2.9%.

In the case of `COc1cc(OC)cc(C(=O)Nc2cc3nn(-c4ccc(C)cc4)nc3cc2C)c1`, the displacement is -3.8%.

As to `Brc1ccc2c(c1)c(-c1ccccc1)nc1nnnn12`, the displacement was 7.3%.

Regarding `O=Cc1cc(Br)ccc1OCc1c(F)cccc1Cl`, the displacement is 0.3%.

`COc1ccc(/C=N/c2ncn[nH]2)cc1OC`: the displacement was -6.4%.

Turning to `CCCOc1ccc(-c2cc(OCC)c3c(C)oc(C)c3c(=O)c2)cc1`, the displacement worked out at 22.4%.

`COc1nc(Nc2ccccc2)nc(NC(C)(C)C)n1`: the displacement was 4.3%.

For `CC(C)(C)c1cc(C(F)(F)F)nc(NC(=O)NS(=O)(=O)c2ccccc2Cl)n1`, the displacement was determined as 17.9%.

Regarding `CCOc1cccc(C2Nc3ccccc3NC3=C2C(=O)CC(c2ccc(OC)cc2)C3)c1` (stereo unspecified), the displacement was -6.8%.

As for `CN1CCN(C(=O)C(=O)Nc2ccc3c(c2)OCO3)CC1`, the displacement came to 0.6%.

As to `O=C(/C=C/c1cc(Br)cs1)Nc1ccccc1[N+](=O)[O-]`, the displacement amounted to 12.4%.

Turning to `O=C(COc1ccccc1)Nc1ccc(NC(=O)c2ccco2)cc1`, the displacement is -9.4%.

For the compound `Brc1ccc(Nc2ccc3ccccc3n2)cc1`, the displacement came to 1.2%.

On to `Cc1ccc(CSCCNC(=O)CN(c2cccc([N+](=O)[O-])c2)S(=O)(=O)c2ccccc2)cc1`, for which the displacement is -4.4%.

With `COC(=O)c1ccccc1-c1ccc(/C=C2/SC(=S)NC2=O)o1`, the displacement is 15.2%.

As for `COC(=S)N/C(=N/S(=O)(=O)c1ccc(Br)cc1)c1ccccc1`, the displacement stood at 7.2%.

With `OC(CN1CCCCC1)c1ccc2c(c1)OCCCO2` (stereo unspecified), the displacement is -6%.

Regarding `c1ccc(N2N=C(c3cccs3)CC2c2cccs2)cc1` (stereo unspecified), the displacement was -9.7%.

Take `Cc1ccccc1NC(=O)COc1ccccc1`: the displacement stood at 12.4%.

For the compound `CCOc1ccc(Cc2c(O)n(-c3ccccc3)c(=S)[nH]c2=O)cc1`, the displacement was -13.7%.

For the compound `O=C(Nc1cccc(Cl)c1)[C@@H]1C2C=CC(C2)[C@@H]1C(=O)O` (stereo partly specified), the displacement was -13.5%.

Consider `COc1cc(CNc2ccc(Br)c(C)c2)cc(OC)c1`, for which the displacement was -6%.

Turning to `COc1cc(CN2CCN(Cc3ccccc3Br)CC2)cc(OC)c1`, the displacement was -12.8%.

Turning to `N#CCCN1CCN(C(CNS(=O)(=O)c2ccc(Cl)cc2)c2ccccc2)CC1` (stereo unspecified), the displacement was 10%.

Turning to `Cc1ccc(N(C)C)cc1NC(=O)CCC(=O)O`, the displacement was 7.9%.

For `O=C(NC(C(=O)NC1CCCCC1)C12CC3CC(CC(C3)C1)C2)c1ccccc1` (stereo unspecified), the displacement was -0.6%.

In the case of `COc1ccc(NC(=O)c2cccc(F)c2)cc1Cl`, the displacement was -17.7%.

In the case of `CCOC(=O)c1ccc(NC(=O)c2cc(-c3cccs3)nc3ccccc23)cc1`, the displacement came out at 4.7%.

For the compound `Cc1ccc2cccc(SCC(=O)Nc3ccc(Br)cc3)c2n1`, the displacement is -2%.

On to `O=C(Nc1nc2sc3c(c2c(=O)s1)CCCC3)c1ccc([N+](=O)[O-])cc1`, for which the displacement is -13.5%.

With `O=C(NC(=S)Nc1ccccc1)c1cccnc1`, the displacement is -7.9%.

For `CCCC1CCC(c2ccc(OCC)cc2)=CC1=O` (stereo unspecified), the displacement amounted to 6.3%.

In the case of `O=C(O)c1cc(-c2cccs2)nc2ccccc12`, the displacement amounted to 7.7%.

In the case of `CCOC(=O)C1=C(N)OC2=C(C(=O)CC(C)(C)C2)C1c1ccc(Cl)c(Cl)c1` (stereo unspecified), the displacement stood at 0.2%.

For the compound `CCOc1ccc(N(CC(=O)Nc2c(C)cccc2C)S(=O)(=O)c2ccccc2)cc1`, the displacement is -12.3%.

Turning to `Cn1c(=O)c([N+](=O)[O-])c(NCCc2ccccc2)c2ccccc21`, the displacement was -8.2%.

`Cc1ccc(S(=O)(=O)N2CCN(C(=O)c3cccc(F)c3)CC2)cc1`: the displacement was -1.9%.

`O=C(COc1ccccc1[N+](=O)[O-])Nc1ccc2oc(-c3cc(Br)ccc3Cl)nc2c1`: the displacement is 16.2%.

Turning to `CC(C)NC(=O)CN(Cc1ccccc1)S(=O)(=O)c1ccccc1`, the displacement turned out to be 3.9%.

Regarding `Cc1cc(C)cc(N2C(=O)C3C(c4ccccc4Cl)OC4(C(=O)c5ccccc5C4=O)C3C2=O)c1` (stereo unspecified), the displacement came out at 1.7%.

With `Cc1cccc(/C=N/N2CCN(Cc3ccccc3Cl)CC2)c1`, the displacement is -1%.

As for `COc1ccc(C=C2C(=O)N(c3ccccc3)C(=O)N(c3ccccc3)C2=O)cc1C(=O)O`, the displacement was found to be 4.5%.

With `Nc1c(C(=O)c2ccc(Br)cc2)sc2nc(C(F)(F)F)c(C(=O)c3cccs3)cc12`, the displacement was found to be 51.1%.

In the case of `CCOc1ccccc1N(CC(=O)Nc1ccccc1Br)S(=O)(=O)c1ccccc1`, the displacement is -3.5%.

Regarding `N/C(Cc1ccc([N+](=O)[O-])cc1)=N\OC(=O)c1ccc2ccccc2c1`, the displacement came to 9%.

`Brc1ccc(C2=CSC3=NCCN23)cc1`: the displacement was 0%.

As for `O=C(Nc1cccc([N+](=O)[O-])c1)c1ccc2ccccc2n1`, the displacement was found to be 35.2%.

Take `O=C1N/C(=N/N=C\c2ccc(-c3ccc(Cl)cc3)o2)SC1Cc1ccccc1` (stereo unspecified): the displacement worked out at 17%.

With `O=C1NC(=O)C(=Cc2ccc(OC(=O)c3ccc(Cl)c(Cl)c3)cc2)C(=O)N1`, the displacement is -10%.

Consider `Cc1ccc(C2([N+](=O)[O-])C(=O)c3ccccc3C2=O)cc1`, for which the displacement was -7.9%.

`Cc1ccc(S(=O)(=O)NC(=O)Nc2ccccc2I)cc1`: the displacement stood at 17.8%.

For `O=C1/C(=C/c2c(Cl)cccc2Cl)SC(=S)N1CCc1ccccc1`, the displacement came out at 3.8%.

As to `COc1ccc(C(=O)Nc2ccc(Br)c(C)c2)c(OC)c1`, the displacement was 14.5%.

For the compound `C=CCn1c(CCCN2C(=O)c3cccc4cccc(c34)C2=O)nnc1SCC(=O)O`, the displacement was -1.7%.

As to `COc1ccc(OC)c(NC(=O)c2sc3ccccc3c2Cl)c1`, the displacement stood at 17.2%.

As to `COc1ccc2c(c1C)CCC/C2=N\OC(=O)c1ccc([N+](=O)[O-])cc1`, the displacement was -6.4%.

For `CCOc1ccc(N(CC(=O)Nc2cccc(C(C)=O)c2)S(=O)(=O)c2ccc(Br)cc2)cc1`, the displacement is -2.3%.

As to `CCc1ccccc1N(CC(=O)Nc1ccc(I)cc1)S(C)(=O)=O`, the displacement was -9.2%.

For the compound `COCCOC(=O)C1=C(C)NC(=O)CC1c1ccccc1Br` (stereo unspecified), the displacement worked out at 2.1%.

Turning to `Cc1c(NC(=O)CSCC(=O)Nc2ccc3ccccc3c2)c(=O)n(-c2ccccc2)n1C`, the displacement worked out at 8%.

On to `CCCCOc1ccc(NC(=O)c2cc3cc(Br)ccc3oc2=O)cc1`, for which the displacement came out at 10.3%.

Values taken from PubChem BioAssay AID1240 (Sanford-Burnham Center for Chemical Genomics, 2008).
